According to patent US20210363269A1 (ALX ONCOLOGY, published 2021):

T1: C57BL/6 mouse SIRP-α D1 domain (mouse (C57BL/6 strain), UniProt P97797 32-148)
T1 sequence: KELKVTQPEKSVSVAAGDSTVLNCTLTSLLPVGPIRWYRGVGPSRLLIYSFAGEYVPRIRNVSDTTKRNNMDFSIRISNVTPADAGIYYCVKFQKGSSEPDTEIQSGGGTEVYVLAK

T2: mouse 129 SIRP-α D1 domain (mouse (129 strain), UniProt P97797 32-150)
T2 construct: also called m129
T2 chain: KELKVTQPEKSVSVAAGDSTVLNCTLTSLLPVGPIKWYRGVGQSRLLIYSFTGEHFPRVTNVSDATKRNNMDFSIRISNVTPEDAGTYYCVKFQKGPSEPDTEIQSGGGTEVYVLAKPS

T3: C57BL/6 mouse SIRP-α D1 domain (mouse (C57BL/6 strain), UniProt P97797 32-148)
T3 sequence: T1 sequence

T4: mouse 129 SIRP-α D1 domain (mouse (129 strain), UniProt P97797 32-150)
T4 construct: also called m129
T4 chain: T2 chain

T5: cynomolgus SIRP-α D1 domain (cyno1) (cynomolgus monkey, UniProt Q5TFQ8 30-148 (human entry), limits assumed)
T5 chain: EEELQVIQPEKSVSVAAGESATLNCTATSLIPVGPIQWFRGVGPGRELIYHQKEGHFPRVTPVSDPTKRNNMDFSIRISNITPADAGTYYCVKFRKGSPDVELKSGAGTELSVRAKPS

T6: cynomolgus SIRP-α D1 domain (cyno2) (cynomolgus monkey, UniProt Q5TFQ8 30-148 (human entry), limits assumed)
T6 chain: T5 chain with E19D, A27V, T28S, V42A, H51N, Q52L, P62A

T7: high affinity SIRP-α D1 variant CV1-3
T7 chain: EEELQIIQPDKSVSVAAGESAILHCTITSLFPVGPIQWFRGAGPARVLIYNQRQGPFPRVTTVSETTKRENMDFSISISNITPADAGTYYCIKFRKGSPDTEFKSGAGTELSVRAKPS

T8: cynomolgus SIRP-α D1 domain (SEQ ID NO:12) (cynomolgus, UniProt Q5TFQ8 30-148 (human entry), limits assumed)
T8 construct: also called cyno2; Cyno2
T8 chain: T5 chain with E19D, A27V, T28S, V42A, H51N, Q52L, P62A

T9: cynomolgus SIRP-α D1 domain (SEQ ID NO:11) (cynomolgus, UniProt Q5TFQ8 30-148 (human entry), limits assumed)
T9 construct: also called cyno1
T9 chain: T5 chain

T10: high affinity SIRP-α D1 variant CV1-3 (human)
T10 chain: T7 chain

B1: S120 scFv-Fc (scFv)
scFv: EIVLTQSPATLSVSPGERATFSCRASQNVKNDLAWYQQRPGQAPRLLIYAARIRETGIPERFSGSGSGTEFTLTITSLQSEDFAVYYCQQYYDWPPFTFGGGTKVEIKGQSSRSSGGGGSSGGGGSDVQLVESGGGVVQPGGSLRLSCAASGFSFSNFAMTWVRQAPGEGLEWVSTIGSGDTYYADSVKGRFTISRDNSKNTLYLQMNSLRAEDTAVYYCAKDSTVSWSGDFFDYWGLGTRVTVSSSL[letters of human IgG1 Fc with C220S (EU numbers) and a few adjoining residues left out]
B2: S122 scFv-Fc (scFv)
scFv: EIVLTQSPATLSVSPGERATFSCRASQNVKNDLAWYQQRPGQAPRLLIYAARIRETGIPERFSGSGSGTEFTLTITSLQSEDFAVYYCQQYYDWPPFTFGGGTKVEIKGQSSRSSGGGGSSGGGGSDVQLVESGGGVVRPGESLRLSCAASGFRFSNFAMTWVRQAPGEGLEWVSTIGSGDTYYADSVKGRFTISRDNSKNTLYLQMNSLRAEDTAVYYCAKDSTVSWSGDFFDYWGLGTLVTVSSSL[letters of human IgG1 Fc with C220S (EU numbers) and a few adjoining residues left out]
B3: S119 scFv-Fc (scFv)
scFv: EIVLTQSPATLSVSPGERATFSCRASQNVKNDLAWYQQRPGQAPRLLIYAARIRETGIPERFSGSGSGTEFTLTITSLQSEDFAVYYCQQYYDWPPFTFGGGTKVEIKGQSSRSSGGGGSSGGGGSDVQLLESGGGVVQPGGSLRLSCAASGFSFSNFAMTWVRQAPGEGLEWVSTIGSGDTYYADSVKGRFTISRDNSKNTLYLQMNSLRAEDTAVYYCAKDSTVSWSGDFFDYWGLGTLVTVSSSL[letters of human IgG1 Fc with C220S T223P (EU numbers) and a few adjoining residues left out]
B4: S121 (scFv)
scFv: EIVLTQSPATLSVSPGERATFSCRASQNVKNDLAWYQQRPGQAPRLLIYAARIRETGIPERFSGSGSGTEFTLTITSLQSEDFAVYYCQQYYDWPPFTFGGGTKVEIKGQSSRSSGGGGSSGGGGSDVQLVESGGGVVQPGGSLRLSCAASGFSFSNFAMTWVRQAPGEGLEWVSTIGSGDTYYADSVKGRFTISRDNSKNTLYLQMNSLRAEDTAVYYCAKDSTVSWSGDFFDYWGLGTLVTVSSSL[letters of human IgG1 Fc with C220S (EU numbers) and a few adjoining residues left out]
notes: scFv-Fc: VL-linker-VH fused to human IgG1 Fc
B5: S119 (scFv)
scFv: EIVLTQSPATLSVSPGERATFSCRASQNVKNDLAWYQQRPGQAPRLLIYAARIRETGIPERFSGSGSGTEFTLTITSLQSEDFAVYYCQQYYDWPPFTFGGGTKVEIKGQSSRSSGGGGSSGGGGSDVQLLESGGGVVQPGGSLRLSCAASGFSFSNFAMTWVRQAPGEGLEWVSTIGSGDTYYADSVKGRFTISRDNSKNTLYLQMNSLRAEDTAVYYCAKDSTVSWSGDFFDYWGLGTLVTVSSSL[letters of human IgG1 Fc with C220S T223P (EU numbers) and a few adjoining residues left out]
B6: S122 (scFv)
scFv: EIVLTQSPATLSVSPGERATFSCRASQNVKNDLAWYQQRPGQAPRLLIYAARIRETGIPERFSGSGSGTEFTLTITSLQSEDFAVYYCQQYYDWPPFTFGGGTKVEIKGQSSRSSGGGGSSGGGGSDVQLVESGGGVVRPGESLRLSCAASGFRFSNFAMTWVRQAPGEGLEWVSTIGSGDTYYADSVKGRFTISRDNSKNTLYLQMNSLRAEDTAVYYCAKDSTVSWSGDFFDYWGLGTLVTVSSSL[letters of human IgG1 Fc with C220S (EU numbers) and a few adjoining residues left out]
B7: S120 (scFv)
scFv: EIVLTQSPATLSVSPGERATFSCRASQNVKNDLAWYQQRPGQAPRLLIYAARIRETGIPERFSGSGSGTEFTLTITSLQSEDFAVYYCQQYYDWPPFTFGGGTKVEIKGQSSRSSGGGGSSGGGGSDVQLVESGGGVVQPGGSLRLSCAASGFSFSNFAMTWVRQAPGEGLEWVSTIGSGDTYYADSVKGRFTISRDNSKNTLYLQMNSLRAEDTAVYYCAKDSTVSWSGDFFDYWGLGTRVTVSSSL[letters of human IgG1 Fc with C220S (EU numbers) and a few adjoining residues left out]
notes: also called clone 120

Biological target: T1, C57BL/6 mouse SIRP-α D1 domain
Assay: SPR, captured scFv-Fc
Outline: (§1)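 scFv-Fc antibody clones were captured from pre-filtered culture media onto anti-human IgG Fc, amine-coupled at about 4000 RU on a GLC chip in a ProteOn XPR36 instrument. SIRP analytes were passed over in PBS pH 7.4 with 0.01% Tween-20 at 25° C, and responses were double-referenced against interspot and buffer-blank signals. Curves were fitted to a 1:1 Langmuir model. Dissociation rate constants (koff) were taken from those fits.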

Binder | binding result
B1 | no binding (tested: 100 nM)
B2 | no binding (tested: 100 nM)
B3 | no binding (tested: 100 nM)

Biological target: T2, mouse 129 SIRP-α D1 domain
Assay: SPR, captured scFv-Fc
Outline: as §1

Binder | binding result
B1 | no binding (tested: 100 nM)
B2 | no binding (tested: 100 nM)
B3 | no binding (tested: 100 nM)

Biological target: T3, C57BL/6 mouse SIRP-α D1 domain
Assay: SPR
Outline: as §1

Binder | binding result
B4 | no binding (tested: Koff > 5 × 10^3 (legend))
B5 | no binding (tested: Koff > 5 × 10^3 (legend))
B6 | no binding (tested: Koff > 5 × 10^3 (legend))
B7 | no binding (tested: Koff > 5 × 10^3 (legend))

Biological target: T4, mouse 129 SIRP-α D1 domain
Assay: SPR
Outline: as §1

Binder | binding result
B4 | no binding (tested: Koff > 5 × 10^3 (legend))
B5 | no binding (tested: Koff > 5 × 10^3 (legend))
B6 | no binding (tested: Koff > 5 × 10^3 (legend))
B7 | no binding (tested: Koff > 5 × 10^3 (legend))

Biological target: T11, human SIRP-α v1 D1 domain (human, UniProt P78324 31-149)
T11 construct: also called human v1
Assay: SPR, Langmuir fit
Outline: as §1

Binder | koff
B4 | 0.000479 s⁻¹
B5 | 0.000415 s⁻¹
B6 | 0.000498 s⁻¹
B7 | 0.000404 s⁻¹

Biological target: T12, human SIRPβ isoform 1 (human, UniProt O00241 30-148)
T12 construct: also called SIRPb; sirpb1
Assay: SPR, Langmuir fit
Outline: as §1

Binder | koff
B4 | 0.000564 s⁻¹
B5 | 0.000428 s⁻¹
B6 | 0.000352 s⁻¹
B7 | 0.000425 s⁻¹

Biological target: T5, cynomolgus SIRP-α D1 domain (cyno1)
Assay: SPR, Langmuir fit
Outline: as §1

Binder | koff
B4 | 0.000302 s⁻¹
B5 | 0.000234 s⁻¹
B6 | 0.000266 s⁻¹
B7 | 0.000236 s⁻¹

Biological target: T13, human SIRP-α v2 D1 domain (human)
T13 construct: also called human v2
Assay: SPR, Langmuir fit
Outline: as §1

Binder | koff
B4 | 0.000112 s⁻¹
B5 | 0.000148 s⁻¹
B6 | 0.000226 s⁻¹
B7 | 0.000149 s⁻¹

Biological target: T14, human SIRPγ isoform 1 (human, UniProt Q9P1W8 29-147)
T14 construct: also called SIRPg; sirpg
Assay: SPR, Langmuir fit
Outline: as §1

Binder | koff
B4 | 0.000482 s⁻¹
B5 | 0.000395 s⁻¹
B6 | 0.000361 s⁻¹
B7 | 0.000393 s⁻¹

Biological target: T6, cynomolgus SIRP-α D1 domain (cyno2)
Assay: SPR, Langmuir fit
Outline: as §1

Binder | koff
B4 | 0.000319 s⁻¹
B5 | 0.00031 s⁻¹
B6 | 0.000327 s⁻¹
B7 | 0.000314 s⁻¹

Biological target: T7, high affinity SIRP-α D1 variant CV1-3
Assay: SPR, Langmuir fit
Outline: as §1

Binder | koff
B5 | 0.000565 s⁻¹
B6 | 0.000663 s⁻¹
B7 | 0.000626 s⁻¹

Biological target: T8, cynomolgus SIRP-α D1 domain (SEQ ID …)
Assay: SPR, captured scFv-Fc, 100 nM analyte
Procedure: (§2) Binding of the antibody clones to various SIRP proteins was determined using surface plasmon resonance (SPR) detection on a ProteOn XPR36 instrument (Bio-Rad, Hercules, Calif.) using phosphate buffered saline (PBS, pH 7.4) supplemented with 0.01% Tween-20 (PBST) as running buffer. The pre-filtered media containing the secreted antibodies was used directly for the assay. First, anti-Human IgG Fc (BR-1008-39, GE Healthcare) was amine-coupled onto a GLC sensor chip to generate the capture surfaces for the antibodies. About 4000 RU per flow cell of immobilized anti-human IgG Fc is achieved. Each clone is screened using the same method as follows.
(§3) (1) ‥5-10 uL of pre-filtered media in 10 mM sodium acetate buffer (pH4.5) was injected for 2 mins at 30 ul/min;
(§4) The koff rates of binding of each clone to each SIRP analyte were determined using SPR (Table C). The SPR screening conditions have been described herein, and the Koff values were determined using Langmuir kinetic fittings. The CD47 blocking properties (block, non-block, kick-off) are described in the last column of the Table C. Each antibody is identified according to its corresponding SEQ ID NO. SIRP analyte sequences are as follows: CV1-3, SEQ ID NO:18; v1, SEQ ID NO:5; v2, SEQ ID NO:6; cyno1, SEQ ID NO:11; cyno2, SEQ ID NO:12; m129, SEQ ID NO:7; NOD, SEQ ID NO: 8; BL6, SEQ ID NO:9; sirpb1, SEQ ID NO:13; sirpg, SEQ ID NO:15.

Binder | koff
B1 | 0.000314 s⁻¹
B2 | 0.000327 s⁻¹
B3 | 0.00031 s⁻¹

Biological target: T9, cynomolgus SIRP-α D1 domain (SEQ ID …)
Assay: SPR, captured scFv-Fc, 100 nM analyte
Procedure: as §2, §3, §4

Binder | koff
B1 | 0.000236 s⁻¹
B2 | 0.000266 s⁻¹
B3 | 0.000234 s⁻¹

Biological target: T15, human SIRPβ isoform 1 (human, UniProt O00241 30-148)
T15 construct: also called sirpb1; Sirpb1
Assay: SPR, captured scFv-Fc, 100 nM analyte
Procedure: as §2, §3, §4

Binder | koff
B1 | 0.000425 s⁻¹
B2 | 0.000352 s⁻¹
B3 | 0.000428 s⁻¹

Biological target: T10, high affinity SIRP-α D1 variant CV1-3
Assay: SPR, captured scFv-Fc, 100 nM analyte
Procedure: as §2, §3, §4

Binder | koff
B1 | 0.000626 s⁻¹
B2 | 0.000663 s⁻¹
B3 | 0.000565 s⁻¹

Biological target: T16, human SIRP-α v2 D1 domain (human)
T16 construct: also called human v2; human α v2
Assay: SPR, captured scFv-Fc, 100 nM analyte
Procedure: as §2, §3, §4

Binder | koff
B1 | 0.000149 s⁻¹
B2 | 0.000226 s⁻¹
B3 | 0.000148 s⁻¹

Biological target: T17, human SIRPγ isoform 1 (human, UniProt Q9P1W8 29-147)
T17 construct: also called sirpg; sirp-g
Assay: SPR, captured scFv-Fc, 100 nM analyte
Procedure: as §2, §3, §4

Binder | koff
B1 | 0.000393 s⁻¹
B2 | 0.000361 s⁻¹
B3 | 0.000395 s⁻¹

Biological target: T18, human SIRP-α v1 D1 domain (human, UniProt P78324 31-149)
T18 construct: also called human v1; human α v1
Assay: SPR, captured scFv-Fc, 100 nM analyte
Procedure: as §2, §3, §4

Binder | koff
B1 | 0.000404 s⁻¹
B2 | 0.000498 s⁻¹
B3 | 0.000415 s⁻¹

Substitutions are numbered along the chain they refer to.
